# Measured values: PMC4336329 (PLoS ONE, 2015)
# In all, about 310,000 compounds went through this assay and about 2,200 (0.71%) showed an effect of 50% or more. Effects have a minus sign here. The list shows a part of the results.
# Target: human ether-à-go-go-related gene (hERG) potassium channel (human, UniProt Q12809)
# Experiment: primary screen, population patch clamp on CHO cells stably expressing hERG
# Chain of human ether-à-go-go-related gene (hERG) potassium channel (Q12809 whole entry, looked up): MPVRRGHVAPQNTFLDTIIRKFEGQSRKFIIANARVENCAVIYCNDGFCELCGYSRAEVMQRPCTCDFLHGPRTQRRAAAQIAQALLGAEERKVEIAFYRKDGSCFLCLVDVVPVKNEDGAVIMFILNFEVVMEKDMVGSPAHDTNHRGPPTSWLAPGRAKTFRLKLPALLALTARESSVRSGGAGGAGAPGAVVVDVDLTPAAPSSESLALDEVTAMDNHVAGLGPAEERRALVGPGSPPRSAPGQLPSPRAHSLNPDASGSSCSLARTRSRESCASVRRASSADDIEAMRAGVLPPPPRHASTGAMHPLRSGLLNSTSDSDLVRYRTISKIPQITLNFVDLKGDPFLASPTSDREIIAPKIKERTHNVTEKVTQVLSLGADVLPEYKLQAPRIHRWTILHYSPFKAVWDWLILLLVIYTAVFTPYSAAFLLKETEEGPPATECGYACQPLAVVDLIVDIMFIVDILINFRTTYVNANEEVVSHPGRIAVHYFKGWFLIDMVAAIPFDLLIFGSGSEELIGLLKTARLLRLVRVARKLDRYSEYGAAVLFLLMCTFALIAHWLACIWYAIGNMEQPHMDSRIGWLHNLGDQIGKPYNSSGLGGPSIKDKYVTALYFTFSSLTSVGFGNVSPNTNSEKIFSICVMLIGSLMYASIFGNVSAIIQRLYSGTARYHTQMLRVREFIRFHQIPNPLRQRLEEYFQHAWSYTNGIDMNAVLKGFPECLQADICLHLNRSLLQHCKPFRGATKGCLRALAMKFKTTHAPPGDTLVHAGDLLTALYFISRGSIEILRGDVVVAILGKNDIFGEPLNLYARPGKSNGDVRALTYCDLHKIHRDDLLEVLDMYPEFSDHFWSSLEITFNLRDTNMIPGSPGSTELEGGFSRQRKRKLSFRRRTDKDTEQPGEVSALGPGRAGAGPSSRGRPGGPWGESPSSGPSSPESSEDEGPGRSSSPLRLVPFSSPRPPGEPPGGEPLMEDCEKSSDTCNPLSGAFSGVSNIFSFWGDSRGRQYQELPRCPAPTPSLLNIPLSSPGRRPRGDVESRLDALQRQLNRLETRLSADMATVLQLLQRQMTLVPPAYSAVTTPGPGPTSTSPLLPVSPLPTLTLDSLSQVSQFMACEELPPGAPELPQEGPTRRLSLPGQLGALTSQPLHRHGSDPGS
row,SMILES,"hERG current change (%, negative = inhibition) at 1uM [%]"
1,CC1CC2(O)c3nonc3CCC2N1O (stereo not drawn),-1.14
2,CSc1ccccc1-c1nnc(NC(=O)Cc2ccccc2)o1,12.8
3,O=C(Nc1ccccn1)c1ccc(=O)[nH]n1,10.4
4,O=C(Cn1nnc(-c2cccc(C(F)(F)F)c2)n1)N1CCCCCC1,6.45
5,COc1ccc(N2CCN(c3ccc(NC(=O)c4ccc5c(c4)OCO5)cc3C#N)CC2)cc1,10.4
6,CCn1c(C)c(C)c2cc(C(=O)N3CCN(c4ccccc4)CC3)ccc21,13.5
7,CCNS(=O)(=O)c1ccc(NS(=O)(=O)c2cc(C)ccc2C)cc1,2.05
8,CCOc1ccc(S(=O)(=O)Nc2ccc(C(=O)NCc3ccncc3)cc2)cc1,1.96
9,COC(=O)c1sc(NC(=O)COc2ccccc2)nc1C,3.47
10,O=C(c1cccc([N+](=O)[O-])c1)N1CCN(c2ncccn2)CC1,-5.31
11,C=CCOc1cccc(/C=N/NC(=O)CN2CCCCC2)c1,-4.04
12,O=C(NCc1ccccc1)Nc1cccn(Cc2ccccc2F)c1=O,10.8
13,Cc1ccc(F)c(CNC(=O)C2CCC(=O)N(Cc3ccccn3)C2)c1F (stereo not drawn),16.3
14,O=C(NCc1ccccn1)c1cccs1,16.1
15,CCCN1CCN(CC(=O)Nc2nc3ccccc3s2)CC1,-17.9
16,O=C(Nc1ccccc1)c1ccccc1NC(=O)C(F)(F)F,6.51
17,CCOC(=O)C1=C(COc2ccccc2)NC(=O)NC1c1cccc([N+](=O)[O-])c1 (stereo not drawn),9.78
18,C/C(N)=C(/C#N)C(=O)CSc1ccc2c(c1)OCCO2,1.5
19,COc1ccc(-c2cc(C(F)(F)F)nc(S(C)(=O)=O)n2)cc1,7.98
20,COc1cc(/C=C2/C(=N)N3OC(C)=CC3=NC2=O)ccc1OC(=O)c1ccco1,16.9
21,O=C(N1CCOCCOc2ccccc2OCCOCC1)C(F)(F)F,12.6
22,Brc1ccc(/C=N/n2cnnc2)s1,7.67
23,Cc1ccc(/C(N)=N/OC(=O)CCCc2ccccc2)cc1,10.7

row,SMILES,"hERG current change (%, negative = inhibition) at 1uM [%]"
1,COc1cc(OC)cc(C(=O)NNS(=O)(=O)c2ccc(F)cc2)c1,13
2,N#CCSc1nc2ccccc2o1,9.83
3,Cn1c(NC(=O)c2ccc(Cl)s2)cc(=O)n(C)c1=O,1.13
4,COc1ccc(CC(=O)Nc2cc(NC(=O)Cc3ccc(OC)c(OC)c3)cc(C(=O)O)c2)cc1OC,17.3
5,CC(Oc1ccc2c3c(c(=O)oc2c1)CCC3)C(=O)NC1CCN(Cc2ccccc2)CC1 (stereo not drawn),-13.8
6,O=C(Nc1ccc(Br)cc1)N1CCCCCCC1,5.12
7,NNc1nc(-c2ccccc2Cl)c2cc(Br)ccc2n1,14.2
8,COC(=O)CC1C(=O)NCCN1C(=O)Nc1ccc(Cl)c(Cl)c1 (stereo not drawn),7.86
9,O=C(Cc1c(Sc2ccccc2)c2ccccc2n1Cc1ccccc1)NCCO,16
10,COc1ccc(-n2nnc3c(=O)n(CC(=O)N4CCC(C)CC4)cnc32)cc1,4.68
11,C/C(=N\NC(=O)c1ccco1)c1cc(Cl)sc1Cl,9.15
12,CCN(CC)c1ccc(NC(=O)COc2ccccc2C)cc1S(=O)(=O)Nc1ccccc1OC,24.9
13,CCC(Sc1nc2ccccc2c2nc3ccccc3n12)C(=O)NCc1ccco1 (stereo not drawn),8.33
14,Cc1c(C(c2ccc([N+](=O)[O-])cc2)c2c(C)n(C)n(-c3ccccc3)c2=O)c(=O)n(-c2ccccc2)n1C,-4.93
15,O=C(CCC(=O)N1CCOc2ccc(Cl)cc21)N1CCN(c2ccccn2)CC1,-16.8
16,O=C(NC1=NCCS1)c1cc(Cl)ccc1Cl,10.7
17,COc1ccc(CN2CCC(n3nccc3NC(=O)C3CCCC3)CC2)cc1,-47.4
18,NC(=O)[C@@H]1CCCCNc2c(F)cc([N+](=O)[O-])cc2C(=O)N[C@@H](CCCN=C(N)N)C(=O)NCC(=O)N1,18
19,Cc1c(NC(=O)Cn2cc([N+](=O)[O-])cn2)c(=O)n(-c2ccccc2)n1C,14.6
20,COc1cc(OC)c(C(=O)Nc2ccc(N(C)C)cc2)cc1OC,4.96
21,COc1ccccc1CN1CCc2c([nH]c3ccccc23)C1,7.45
22,Cc1c(Cl)cccc1NC(=O)Cn1cccc1,1.99
23,COC(c1ccccc1)(c1ccccc1)C(Oc1nc(C)cc(C)n1)C(=O)O (stereo not drawn),24.1

row,SMILES,"hERG current change (%, negative = inhibition) at 1uM [%]"
1,Cn1c(SCCC(=O)O)nnc1-c1ccncc1,12.1
2,O=C(NC(NC(=S)Nc1cccc(Cl)c1)C(Cl)(Cl)Cl)OCc1ccccc1 (stereo not drawn),10.4
3,CCOC(=O)c1ccc(NC(=O)c2cccc(S(=O)(=O)N3c4ccccc4CC3C)c2)s1 (stereo not drawn),14.4
4,COc1ccc(C=O)cc1,10.8
5,COCc1cc(=O)[nH]c(Nc2nc(C)c3ccccc3n2)n1,6.35
6,N#Cc1nc(-c2ccccc2F)oc1NC1CCCCC1,1.1
7,Cc1sc2nc(CSCC(=O)Nc3ccc(C(=O)N(C)C)cc3)[nH]c(=O)c2c1C,13
8,COc1ccc(NC(=O)CSc2nc(C)cs2)cc1OC,9.55
9,CCCc1nn2c(=O)cc(CSCC(=O)Nc3nnc(CC)s3)nc2s1,12.4
10,CC(C)Oc1cccc(C(=O)Nc2ccccc2N2CCOCC2)c1,-1.22
11,Cc1cc(=O)cc(C)n1-c1ccccc1N1CCOCC1,7.99
12,COc1ccc(C2C(C(=O)c3cccs3)=C(O)C(=O)N2c2nncs2)cc1 (stereo not drawn),11.7
13,CCn1c(C)c(C(C)=O)cc(C#N)c1=O,8.34
14,N/C(Cc1nc2ccccc2s1)=N\O,8.45
15,c1csc(CNc2ncnc3ccc(-c4ccoc4)cc23)c1,9.91
16,COc1ccc(/C=C/C(=O)OCC(=O)NCc2ccccc2)cc1OC,13.2
17,CN(C)C(CNC(=O)c1ccc2ccccc2c1)c1ccco1 (stereo not drawn),4.08
18,CCOc1ccc(CCNC(=O)c2c(C)nn(-c3ccccc3)c2Cl)cc1OCC,-6.57
19,CCc1ccc2[nH]c(=O)c(CN(CCN(C)C)C(=S)NCc3ccco3)cc2c1,-4.63
20,Cc1ccc2nc(NC(=O)CCNS(=O)(=O)c3cccs3)sc2c1,5.2
21,CCCN(CCC)c1nc(NC2CCN(C(=O)OCC)CC2)nc(OC)n1,7.35
22,CCOC(=O)C1=C(N)Oc2cc(O)ccc2C1c1ccc(C)cc1 (stereo not drawn),6.52
23,Cc1sc2nc(C3CC3)nc(SCC(=O)N3CCCc4ccccc43)c2c1C,16.5

row,SMILES,"hERG current change (%, negative = inhibition) at 1uM [%]"
1,Cc1ccc(NS(=O)(=O)c2ccc(OCC(=O)NCc3ccccn3)cc2)cc1,16
2,Cc1nnc(NC(=O)C(C)Sc2nnc(CCNC(=O)c3ccccc3F)n2C)s1 (stereo not drawn),17.3
3,COc1ccc(C(=O)Nc2ccc(O)c3ccccc23)cc1OC,12.1
4,O=C(CSc1ncnc2c1oc1ccccc12)NC1CCCC1,-20.3
5,O=C(CCc1nnc(-c2ccsc2)o1)N1CCc2c(Cl)cccc2C1,0.759
6,CCOC(=O)c1c(CN2CCOCC2)n(-c2ccccc2)c2cc(Br)c(O)c(CN(C)C)c12,-2.3
7,CCCC(C)NC(=O)c1ccc(C2SCC(=O)N2Cc2ccco2)cc1 (stereo not drawn),9.61
8,CSc1cccc(NC(=O)Nc2nc3c(C)cccc3s2)c1,11.8
9,Cc1ccc2nc(N3CCN(c4ccccc4)CC3)c(C=O)c(=O)n2c1,0.7
10,COc1ccc(-c2oc(=O)c3cc(OC)c(OC)cc3c2/C=C/c2ccc(F)cc2)cc1,20.6
11,CC(C)=CC(=O)Nc1ccc2c(c1)OCO2,13.4
12,Cc1ccc(C(=O)c2ccccc2C(=O)O)s1,0.373
13,N#CCCCC#Cc1ccc2c(c1)COc1c3ccccc3nn1-2,9.98
14,COc1ccc(OCC(=O)OC(C)CN2CCOCC2)cc1 (stereo not drawn),16
15,CC(C)C(=O)Nc1ccc(S(=O)(=O)Nc2nccc(/C=C/c3ccccc3)n2)cc1,11.8
16,COc1cccc(CN(C)C(=S)Nc2cccc(C)c2)c1,16.3
17,CC1CCN(S(=O)(=O)c2ccc3c(c2)c(=O)c(C(=O)NC2CCCC2)cn3C)CC1,9.59
18,COc1ccc(C(C)=O)c(Oc2nc(CN3CCOCC3)nc3scc(-c4cccs4)c23)c1,1.14
19,Cn1c(CCN2CCN(c3ccccn3)CC2)nc2cc(NC(=O)COc3ccc([N+](=O)[O-])cc3)ccc21,9.63
20,COCCNC(=O)C(=O)NCC1OCCN1C(=O)c1ccc(Cl)cc1 (stereo not drawn),5.99
21,O=C(CN1C(=O)CCC1=O)Nc1nc(-c2ccc3ccccc3c2)cs1,5.6
